The campaign covered roughly 48,000 compounds. About 550 (1.1%) were called active. Another 4% or so got no clear call; they are omitted. Cut-off read from the data, not from the text of the source: active = potency below about 15 µM; inconclusive = mostly about 16 µM to 33 µM; inactive = weaker than that. The list shows a part of the results.
Potency is the fitted concentration of half-maximal effect.

The target in the assay is Lysosomal acid glucosylceramidase (Homo sapiens) (UniProt P04062). As to the kind of experiment: Glucocerebrosidase.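 Note: the screen sought inhibitors.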 The settings on record: purified enzyme, resorufin glucoside fluorescence (screen aimed at inhibitors), 20 min. In a few lines: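 Compounds titrated against 0.2 nM normal enzyme, 30 uM resorufin beta-D-glucopyranoside substrate, citrate/phosphate buffer with taurocholate and tween-20, pH 5.9. Reaction ran 20 min at room temperature; fluorescence (Ex 548/Em 600) gave AC50.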
UniProt P04062, sequence (P04062 whole entry, looked up): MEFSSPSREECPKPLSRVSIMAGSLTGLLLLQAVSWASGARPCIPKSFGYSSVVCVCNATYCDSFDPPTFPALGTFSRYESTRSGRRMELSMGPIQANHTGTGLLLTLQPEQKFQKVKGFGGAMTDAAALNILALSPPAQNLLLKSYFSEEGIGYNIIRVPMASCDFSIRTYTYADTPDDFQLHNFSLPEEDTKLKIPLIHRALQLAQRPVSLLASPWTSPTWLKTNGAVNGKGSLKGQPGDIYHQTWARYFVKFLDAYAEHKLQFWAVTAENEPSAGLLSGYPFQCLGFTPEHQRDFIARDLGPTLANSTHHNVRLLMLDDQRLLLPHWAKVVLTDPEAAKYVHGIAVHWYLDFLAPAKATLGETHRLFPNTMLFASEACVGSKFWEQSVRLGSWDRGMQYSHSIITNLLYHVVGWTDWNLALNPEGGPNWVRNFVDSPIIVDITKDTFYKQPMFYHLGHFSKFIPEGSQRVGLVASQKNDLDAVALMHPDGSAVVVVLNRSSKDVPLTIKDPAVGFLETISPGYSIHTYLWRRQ
Consider `O=C(COc1ccccc1O)c1cccs1`, for which the Potency was inactive: > 76.9 µM.
As to `O=C(O)CSc1nnc(CNc2ccccc2Cl)n1-c1ccccc1`, the Potency is inactive: > 76.9 µM.
Then `CCO/C=C1/C(=O)N(CC)c2ccccc21`, with inactive: > 76.9 µM.
Then `CCOc1ccc(C2C(C#N)=C(N)Oc3cc(C)n(Cc4ccco4)c(=O)c32)cc1OC` (centres undefined), with inactive: > 76.9 µM; and `CS(=O)(=O)N(CC(=O)NC1CCCCCC1)Cc1ccccc1`, with inactive: > 76.9 µM.
Then `CN1CCN(c2nc3c(c(=O)[nH]c(=O)n3C)n2CCOc2ccccc2)CC1`, with inactive: > 76.9 µM; and `CCOCCCNC(=O)C1CCN(C(=O)N(C)C)CC1`, with inactive: > 76.9 µM.
Regarding `Cc1cccc(-n2c(N)c(C(=O)NCCN3CCOCC3)c3nc4ccccc4nc32)c1`, the Potency result is “inactive”.
Next, `O=C(c1ccc(Br)o1)N1CCN(c2ccccc2F)CC1`: inactive: > 76.9 µM; `Cc1ccc(-c2cc(C(=O)Nc3c(C#N)cnn3C)no2)cc1`: inactive: > 76.9 µM; `CC(C)c1c(O)nc(SCCC(=O)O)[nH]c1=O`: inactive: > 76.9 µM.
Regarding `Cc1ccccc1-n1nnc2c(=O)oc3ccccc3c21`, the Potency was inactive: > 76.9 µM.
Next, `O=C(Cn1cccc1C(=O)c1ccccc1)NCc1cccnc1`: inactive: > 76.9 µM; `COc1ccc(C2OC(=O)CC2C(=O)NC2CCCCCC2)cc1OC` (centres undefined): inactive: > 76.9 µM; `Cc1ccccc1N(C)S(=O)(=O)c1ccc2[nH]cc(C(=O)NCC3CCCO3)c(=O)c2c1` (centres undefined): inactive: > 76.9 µM.
Next, `Cc1ccc(C2c3c(oc4ccccc4c3=O)C(=O)N2c2nnc(C)s2)o1` (centres undefined): inactive: > 76.9 µM.
Then `CCCOc1ccc(C2C(=O)N(C3CCCCC3)CC(=O)N2CCC)cc1OC` (centres undefined), with inactive: > 76.9 µM; and `OCCOCCn1c2ccccc2c2ccccc21`, with inactive: > 76.9 µM; and `Cc1cc(C)nc(-n2nc(C)cc2NC(=O)c2ccc3c(c2)OCO3)n1`, with inactive: > 76.9 µM.
As for `c1ccc(-c2noc(C34CC5CC(CC(C5)C3)C4)n2)nc1`, the Potency was inactive: > 76.9 µM.
Next, `CCc1nnc(NC(=O)c2cc3c(s2)CCCCC3)s1`: inactive: > 76.9 µM; `Cc1nnc(SCC(=O)Nc2ccc(N3CCOCC3)cc2)o1`: inactive: > 76.9 µM.
As to `Cc1c(=O)n(OCc2ccccn2)c2ccccc2[n+]1[O-]`, the Potency was inactive: > 76.9 µM.
Then `CCOC(=O)Nc1ccc2c(c1)nc(CN1CCN(C(C)=O)CC1)n2C`, with inactive: > 76.9 µM; and `CC(=O)C1=C(O)C(=O)N(CO)C1c1ccccc1F` (centres undefined), with inactive: > 76.9 µM; and `O=C1CC(c2cccc(Cl)c2)Cc2nc(N3CCN(c4ccccc4)CC3)ncc21` (centres undefined), with inactive: > 76.9 µM.
Next, `O=C(CSc1nc2ccccc2[nH]1)NC(=O)NCc1ccco1`: inactive: > 76.9 µM; `CCN1CCCC1CNC(=O)c1c(O)c2c([nH]c1=O)CCCC2` (centres undefined): inactive: > 76.9 µM.
For the compound `CCC(Sc1ccc2nnc(-c3ccc(OC)c(OC)c3)n2n1)C(=O)O` (centres undefined), the Potency was inactive: > 76.9 µM.
Next, `Cn1c(=O)[nH]c(=O)c2c1nc(N1CCCCCC1)n2CCCSc1nc2ccccc2o1`: inactive: > 76.9 µM.
Then `Cc1ccc(N2C(=O)C3C(C2=O)C(C(=O)c2ccc(Cl)cc2)N2CCCC32)cc1` (centres undefined), with inactive: > 76.9 µM; and `CCCCNC(=O)c1ccccc1C(=O)NCCCC`, with inactive: > 76.9 µM.
Next, `O=C(NC1CCCCC1)N(CCN1CCOCC1)Cc1cc2cc3c(cc2[nH]c1=O)OCCO3`: inactive: > 76.9 µM; `O=C(Nc1nc2c(ccc3ccccc32)s1)c1ccco1`: inactive: > 76.9 µM.
Take `CCOC(=O)c1c(C2COc3ccccc3O2)csc1N` (centres undefined): the Potency was inactive: > 76.9 µM.
Next, `CCOCCn1c(SCC)nc2c1c(=O)[nH]c(=O)n2C`: inactive: > 76.9 µM; `CCOC(=O)c1[nH]c2ccccc2c1NC(=O)c1cc(OC)c(OC)c(OC)c1`: “inactive”; `O=C(Cn1cnc2c(nnn2Cc2ccc(Cl)cc2)c1=O)OCc1ccccc1`: inactive: > 76.9 µM.
Next, `O=C(Nc1nncs1)C1COc2ccccc2O1` (centres undefined): inactive: > 76.9 µM; `COc1ccc(C(=O)Nc2nnc(Cc3cccs3)s2)cc1OC`: inactive: > 76.9 µM; `COc1cccc(C2N(c3ccc(Cl)c(Cl)c3)C(=O)C3CCCN32)c1OC` (centres undefined): inactive: > 76.9 µM.
Next, `Cc1ccc(-n2c(=O)cc(N3CCC(C)CC3)[nH]c2=O)cc1`: inactive: > 76.9 µM.
Consider `Cc1cc(=O)[nH]c(SCC(=O)Nc2ccc(Br)cn2)n1`, for which the Potency is inactive: > 76.9 µM.
Next, `CCN(CC)S(=O)(=O)c1ccc(C(=O)Nc2ncn(Cc3ccccc3)n2)cc1`: inactive: > 76.9 µM; `CCSC1=C(C#N)C(c2ccc(OC)c(OC)c2)CC(=O)N1` (centres undefined): inactive: > 76.9 µM.
Next, `N#CCCN(C(=O)CSc1ccc2c(c1)OCCO2)c1ccccc1`: inactive: > 76.9 µM; `Cc1cccc(NC(=O)CN2C(=O)COc3ccc(Cl)cc32)c1`: inactive: > 76.9 µM; `CC(C)Cn1c(Br)nc2c1c(=O)n(CCC#N)c(=O)n2C`: inactive: > 76.9 µM.
Then `Cc1ccc(C)c(S(=O)(=O)N2CC(=O)Nc3ccccc32)c1`, with inactive: > 76.9 µM; and `Cc1cc(C)n2nc(C(=O)OCC(=O)Nc3ccc4c(c3)OCO4)nc2n1`, with inactive: > 76.9 µM; and `O=C(c1noc2c1CCCCC2)N1CCOCC1`, with inactive: > 76.9 µM.
As for `CN(CCCNC(=O)COc1cc(=O)n(C)c2ccccc12)Cc1ccccc1`, the Potency was inactive: > 76.9 µM.
Then `OC1(c2ccc(F)cc2)CCN(Cc2nnnn2Cc2cccs2)CC1`, with inactive: > 76.9 µM; and `O=C(O)c1cccc(-n2cccc2/C=N/O)c1`, with inactive: > 76.9 µM.
Next, `CCc1nn(CC(=O)NCCN2CCN(C)CC2)c(=O)c2cc3occc3n12`: inactive: > 76.9 µM; `CCN1CCN(C(=O)CN(c2cc(OC)ccc2OC)S(C)(=O)=O)CC1`: inactive: > 76.9 µM.
Next, `O=C1CCCc2nc(N3CCN(C(c4ccccc4)c4ccccc4)CC3)ncc21`: inactive: > 76.9 µM; `O=S(=O)(c1cccc(S(=O)(=O)N2CCC(N3CCCCC3)CC2)c1)N1CCOCC1`: inactive: > 76.9 µM.
On to `Cc1ccc(C)n1-c1ccc2c(c1)COC2=O`, for which the Potency was inactive: > 76.9 µM.

For the origin of these results see PubChem BioAssay AID360 (National Center for Advancing Translational Sciences (NCATS), 2006).
